Results published in PMC12136788.
Some of the results follow.

T1: UNK ZnF1-3 (human, UniProt Q9C0B0 31-174)
T1 sequence: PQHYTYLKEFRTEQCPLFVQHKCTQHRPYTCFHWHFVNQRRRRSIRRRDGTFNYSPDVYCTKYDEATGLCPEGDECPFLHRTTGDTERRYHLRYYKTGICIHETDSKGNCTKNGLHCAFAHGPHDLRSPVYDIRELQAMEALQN

B1: chr2:26491064:26491065:+_ENSMUSG00000036186_ENSMUST00000074240|mus_hu|FALSE|FALSE (ssRNA)
RNA: GGGAGUUCUACAGUCCGACGAUCGAAGUCAGCCAUGAGCAGGACCUGGCCAACCAGCGCCGGCAGGGAAGGCAGGUCUCCCAGGUUCGCCUUGAGGAAGCUGAGGGUCAUCUCCCGGAAUUCCUUGAUGGAGGUGCCCCGGGUCAACAGAGGAUUGAGCAUCA
B2: chr18:52893488:52893489:-_ENSG00000196628_ENST00000354452|hu_hu|hu_hu_hu_mus_True|8_8 (ssRNA)
RNA: GGGAGUUCUACAGUCCGACGAUCUAUUUAGACCAUUUCCGCGGAGUUAUGGCAUUUACUCAGUGCUGAUAGGUGGAAAAACUACUUCAACAGGGAUUUUUUUUUUCCUUAAUACAUGCCAAGAUUGGUGUGGCUGUAAAACAGCAACAGAGGAUUGAGCAUCA
B3: chr4:76721835:76721836:+_ENSG00000138768_ENST00000264904|hu_mus|hu_hu_hu_mus_True|28_88 (ssRNA)
RNA: GGGAGUUCUACAGUCCGACGAUCGUUUGGCUGGGGUUUCUGAGACGUCUGGAAUACUAACUCAUGUUUGCUAAUAAAUCCUAGUUUCUCUAUGAAAUUCUCUUUGCAAUCCUCUUCCUCUAUUAGUUGCUUUAGUUUCUCUUUCAACAGAGGAUUGAGCAUCA
B4: chr1:163112212:163112213:-_ENSG00000143248_ENST00000313961|hu_hu|hu_hu_hu_mus_False|8_108 (ssRNA)
RNA: GGGAGUUCUACAGUCCGACGAUCUUUAUUUAUCCAGAAGAGUGAGUUACAUACUAGGCAAAGUAUUGGAUACAAUAAUCAGGAAACAAACACUAUUGGUCCAGAAUUUAAAACUUUAUGAGCGAAGGCUUACAAAUGGACUUACAACAGAGGAUUGAGCAUCA
B5: chr16:91657502:91657503:+_ENSMUSG00000022961_ENSMUST00000114036|mus_hu|FALSE|FALSE (ssRNA)
RNA: GGGAGUUCUACAGUCCGACGAUCUCUAGGUGCUAACCUAUAUGGCCUGGGUGCUAUUCUAUAGGACCUGGGUGCUAUCCUGUAGGGUCUAGGUGACAUCCUAUAGGGAUCAGGAGUUAGUCUGUAGGGAUCAUGGCCUAAUCUCAACAGAGGAUUGAGCAUCA
B6: chr2:5814250:5814251:-_ENSMUSG00000025816_ENSMUST00000102981|mus_hu|mus_mus_mus_hu_True|1_18 (ssRNA)
RNA: GGGAGUUCUACAGUCCGACGAUCUUCCUUUCCGGUUUCUGAAUUUCUGGUAGAACUGCACAGAAUGGUUUGAUAACUUCUAAAAAUUUGAUGCCCAUGGCUGCUGCUGGGGAGGCCCGGCGGGCACCCGCGGCCUCGCAGCUGCAACAGAGGAUUGAGCAUCA
B7: chr1:45984709:45984710:-_ENSG00000117450_ENST00000319248|hu_hu|FALSE|FALSE (ssRNA)
RNA: GGGAGUUCUACAGUCCGACGAUCUUUUAGCAUUUCCUGAAGACAUCUUCCUAUCAGCAGUCCCAACACAAGUCGCAGAAACUAACCACCGACACCAGGCAAGAACAAGACGCGCAAGAGCUCUCCGGGGCGCUGCCUUUAUAGCAACAGAGGAUUGAGCAUCA
B8: chr22:19452774:19452775:-_ENSG00000070010_ENST00000399523|hu_hu|hu_hu_hu_mus_False|8_8 (ssRNA)
RNA: GGGAGUUCUACAGUCCGACGAUCCUUCUCAUUGUAGUUGAUAGCAAUCACAUCUCCAGUCGUCAGACAGGCGAAGUUUCUCAAUGCAUUUUCUAAUACCGCUUUAGGGUUGGUAAUAUCCAGGAAGUCAGGGCUCUGAGGCUGCAACAGAGGAUUGAGCAUCA
B9: chr3:176740097:176740098:-_ENSG00000177565_ENST00000430069|hu_mus|hu_hu_hu_mus_True|38_108 (ssRNA)
RNA: GGGAGUUCUACAGUCCGACGAUCUGUUUUUUACACCACAAAAGGAGGCACUUUCAGUAUCUGCAAAAGGUGUUUAGUCCUAAAACAUACUCACCUAGAGAAUAAUUCAGGAAAACAAUCUGUUACACUCUAAGACCUACUCCACAACAGAGGAUUGAGCAUCA
B10: chr11:29608523:29608524:+_ENSMUSG00000020458_ENSMUST00000102843|mus_hu|FALSE|FALSE (ssRNA)
RNA: GGGAGUUCUACAGUCCGACGAUCAGAAAAGUCAUCUGAGAAACUGAUUUUCUCUUCAACUUUGGGUUGUAUGUUCUUCAAAGAAAGGUCAUGGGGCAAUUCUGUGCAAGGCAAUGACCCAGCUCCAUCCGGGGCAUUAGCAAUCAACAGAGGAUUGAGCAUCA
B11: 84646022_84649821_1235_CDS_ENSG00000065615_ENST00000369681|human|control|control (ssRNA)
RNA: GGGAGUUCUACAGUCCGACGAUCGGAUAUUUUAAAAUUGCCCUCAGGACUGCUUACAGAAACAAAAUCUCCAAUCUGAAGACGAUCAAGCUCUGGUGUGAAGAGUCCAGUGGGAUAGAUUUUUAUCAAAAAGUAGAUGUAUUUCAACAGAGGAUUGAGCAUCA
B12: chr2:179515052:179515053:+_ENSMUSG00000000305_ENSMUST00000000314|mus_hu|mus_mus_mus_hu_False|38_58 (ssRNA)
RNA: GGGAGUUCUACAGUCCGACGAUCGCUGUCCCAUGCAGUCACCGUGAACGCCACCUGCUCGGAGGGGACCUGCAGCUCCCUAGUGGCGAAGACUGUCCCAUCCGCCCCAACUUUGAAGUCCAUGCUGUUGGUCUCAUAUUGUGUCAACAGAGGAUUGAGCAUCA
B13: 43581398_43581628_2404_CDS_ENSMUSG00000028467_ENSMUST00000030189|mouse|control|control (ssRNA)
RNA: GGGAGUUCUACAGUCCGACGAUCUUCGGACUCCAUCACAGCCAGACACACAGGCCACAUGUCCUCCAGGAAGCCUUGAUCACCCGUCAGGUAAUAGUCCCGAUAAAUUUGCAAUACAAACUUCAGGUUCAGGUCCUUCCAGUCCAACAGAGGAUUGAGCAUCA
B14: chr17:66251843:66251844:+_ENSG00000196704_ENST00000359783|hu_mus|FALSE|FALSE (ssRNA)
RNA: GGGAGUUCUACAGUCCGACGAUCAAGUAUGUGUCCGAUCUCAUGGGUUAAAGUCUUACAGGAUCGCAACAGCAAAACACUAGUGAUUUCAGGGAUGUAAUAGUUAUCAAAAAUGGAGUAGUCAGUGGGAGACGUUAGCUGCAGCAACAGAGGAUUGAGCAUCA

target: T1, UNK ZnF1-3; assay: nsRBNS (natural sequence RNA bind-n-seq); RBNS binding buffer (assumed for nsRBNS): 25 mM Tris pH 7.5, 150 mM KCl, 3 mM MgCl2, 0.01% Triton X-100, 500 ug/ml BSA, 20 U/ml SUPERase-In, 4 C; UNK is unkempt and MSI1 is Musashi-1; names of the RNAs are library labels; protein concentration not given here; high values mean tight binding

| Binder | binding signal |
| --- | --- |
| B1 | 0.827 enrichment R |
| B2 | 0.986 enrichment R |
| B3 | 0.44 enrichment R |
| B4 | 1.36 enrichment R |
| B5 | 0.53 enrichment R |
| B6 | 0.806 enrichment R |
| B7 | 1.35 enrichment R |
| B8 | 0.859 enrichment R |
| B9 | 0.84 enrichment R |
| B10 | 0.784 enrichment R |
| B11 | 1.98 enrichment R |
| B12 | 0.768 enrichment R |
| B13 | 1.02 enrichment R |
| B14 | 2.37 enrichment R |
